The structures appear in SMILES notation. Out of some 48,000 compounds screened, about 120 (0.25%) were called active. About 4% were inconclusive and are not listed. The call rests on the fitted dose curve; in most records, active means well fitted activation curve with a large enough effect; inconclusive means small, poorly fitted or top-dose-only effect, or another doubt; inactive means no such curve, though single readings can be large or run the other way. This is one part of the list.

The assay can be described thus: Primary qHTS for Identification of Small Molecule Activators of Huntingtin-Antisense Promoter Activity. Further: nearly all actives have a fitted effect of over 55% in size. As to conditions: HEK293 HTT-AS promoter firefly luciferase reporter (activity 0% = vehicle and -100% = no light), 24 h; series mostly up to 57.5 µM; activity change, positive = activation: at the top concentration. The essentials:
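HEK293 Fluc reporter, 2,500 cells/well, 24 h pre-culture; cpds up to 57.5 uM final, 24 h 37 degrees C; Dual-Glo, 10 min RT; normalized vehicle = 0%, zero RLU = -100%.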
A general note: qHTS replaces the single test concentration by a dilution series.
With `COc1cc(OC)c(C(=O)CCCN2CCCC2)c(OC)c1`, the activity change, positive = activation result is “inactive”.

As for `Cn1nnnc1SCCCNCc1ccc(-c2cccc(Cl)c2)o1`, the “activity change, positive = activation” value is inactive: -5.77%.

As for `Brc1ccc(-c2nc(N3CCN(c4ccccc4)CC3)c3ccccc3n2)cc1`, the “activity change, positive = activation” value was inactive: -29.8%.

In the case of `COc1ccc(C(=O)NCc2nnc(SCC(=O)Nc3ccc(C)cc3)n2-c2ccccc2)cc1`, the “activity change, positive = activation” value is inactive: -8.82%.

Regarding `CCc1nc2nc(C)cc(Nc3cc(Cl)ccc3OC)n2n1`, the “activity change, positive = activation” value is inactive: -3.16%.

Consider `CCc1ccc(CNC(=O)c2ccc(NC(=O)N3CCSc4ncccc43)cc2)cc1`, for which the “activity change, positive = activation” value was inactive: -15.8%.

Consider `Cc1ccc(S(=O)(=O)N2CCC(c3nnc(-c4cccc(C)c4)o3)CC2)cc1`, for which the “activity change, positive = activation” value is inactive: -59.5%.

Turning to `CCOc1ccc(CNC(=O)CCc2c(C)nn(-c3ccc(N4CCOCC4)nn3)c2C)cc1`, the “activity change, positive = activation” value is inactive: -8.77%.

With `CC(C)NC(=O)Cn1c(=O)nc(-c2ccccc2)c2ccccc21`, the “activity change, positive = activation” value is inactive: 5.09%.

For the molecule `CCOc1ccc(CCNC(=O)c2ccc(C)c(-n3cnc4cccnc43)c2)cc1`, the “activity change, positive = activation” value is inactive: -0.0836%.

Consider `Cc1ccc(S(=O)(=O)c2nc(-c3ccco3)oc2SCC(=O)c2ccc(Cl)cc2)cc1`, for which the “activity change, positive = activation” value is inactive: -13%.

Regarding `COc1cccc(CNC(=O)c2ccc3c(Cl)c4c(nc3c2)CCCC4)c1`, the “activity change, positive = activation” value is inactive: -13.4%.

`Cc1ccc(C(C)C)c(OCc2ccc(C(=O)Nc3ccc(S(N)(=O)=O)cc3C)o2)c1`: the “activity change, positive = activation” value is inactive: -13.7%.

On to `Cc1cccc(N(C)C(=O)CS(=O)(=O)c2cccc3nsnc23)c1`, for which the “activity change, positive = activation” value is inactive: -9.7%.

On to `CCOc1ccc(Nc2cc(C)c(C#N)c3nc4ccccc4n23)cc1`, for which the “activity change, positive = activation” value was inactive: -3.45%.

`CCOc1ccccc1NC(=O)C1CCN(S(=O)(=O)c2cccc3nonc23)CC1`: the “activity change, positive = activation” value is inactive: -9.11%.

As for `O=c1ccc2ccc(O)c(O)c2o1`, the “activity change, positive = activation” value is inactive: -92.8%.

As for `Cc1cccc(N2CCN(C(=O)C3CCCN(C(=O)c4cc5sccc5n4C)C3)CC2)c1C` (stereo not drawn), the “activity change, positive = activation” value is inactive: -22.4%.

Regarding `COc1ccc(N2CCN(c3ncnc4onc(C)c34)CC2)cc1`, the “activity change, positive = activation” value is inactive: -79.4%.

As for `N#CC(c1ccc(Cl)cc1)c1c(Cl)cc(-n2ncc(=O)[nH]c2=O)cc1Cl` (stereo not drawn), the “activity change, positive = activation” value is inactive: -20.9%.

For `CC1=C(C(=O)Nc2ccc(F)cc2)C(c2ccc(N(C)C)cc2)NC(=O)N1` (stereo not drawn), the “activity change, positive = activation” value is inactive: 10.1%.

As to `CCOc1ccc(CCNC(=O)Cn2ccc3cc(S(=O)(=O)N4CCCCCC4)ccc32)cc1`, the “activity change, positive = activation” value is inactive: -35.5%.

Turning to `CCC1CN(C(=O)C2CCN(S(=O)(=O)c3c(C)noc3/C=C/c3ccc(C)cc3)CC2)c2cc(C)ccc2O1` (stereo not drawn), the “activity change, positive = activation” value was inactive: 13.8%.

In the case of `COc1ccc(NC(=O)C(=O)c2cc(C)n(-c3ccc(C)cc3)c2C)cc1Cl`, the “activity change, positive = activation” value is inactive: -6.46%.

Take `COCCNC(=O)CCn1c(=O)[nH]c2cc(OC)c(OC)cc2c1=O`: the “activity change, positive = activation” value was inactive: 1.62%.

Consider `COc1ccc(NC(=O)CSc2nnc(-c3nonc3NC(C)=O)n2C)cc1Cl`, for which the “activity change, positive = activation” value is inactive: -27%.

Turning to `O=c1cc2nc(-c3ccccc3F)nc(SCc3ccc(Br)cc3)n2[nH]1`, the “activity change, positive = activation” value was inactive: -8.41%.

`CCOC(=O)c1c(C)[nH]c(C)c1S(=O)(=O)N1CCCC(C(=O)Nc2ccc(OC)c(OC)c2)C1` (stereo not drawn): the “activity change, positive = activation” value was inactive: 17.7%.

`Cc1cccc(Cn2c(SCc3ccc(C(=O)NCc4cccs4)cc3)nc3cccnc32)c1`: the “activity change, positive = activation” value was inactive: -33.9%.

Turning to `Cc1ccccc1-n1c2nc(=O)[nH]c(=O)c-2cc2c(Cl)cccc21`, the “activity change, positive = activation” value was inactive: 13.3%.

Turning to `Cc1c(Cl)cccc1NC(=O)CCn1cnnn1`, the “activity change, positive = activation” value was inactive: -7%.

On to `CCN(CC)CCCNC(=O)C(C)n1nc(C)n2c(cc3occc32)c1=O` (stereo not drawn), for which the “activity change, positive = activation” value was inactive: -13.4%.

As to `COC(=O)c1cc(C)nc2c1c(=O)nc(SCc1cccc(C(F)(F)F)c1)n2C1CC1`, the “activity change, positive = activation” value was inactive: 0.969%.

Consider `COc1ccc(Cl)cc1NC(=O)COC(=O)CC(C)(C)CC1=NS(=O)(=O)c2ccccc2N1`, for which the “activity change, positive = activation” value was inactive: -40.7%.

As to `COCCCN1C(=O)c2[nH]nc(-c3ccccc3O)c2C1c1ccc(OC)cc1` (stereo not drawn), the “activity change, positive = activation” value was inactive: -38.5%.

For `O=C(C1CCC(CNS(=O)(=O)c2cccs2)CC1)N1CCN(c2ccc(Cl)cc2)CC1` (stereo not drawn), the “activity change, positive = activation” value is inactive: -75.5%.

As to `COc1ccc(CCNC(=O)Cn2c(=O)nc(-c3ccccc3F)c3cc(Cl)ccc32)cc1OC`, the “activity change, positive = activation” value was inactive: 29.9%.

For `COC(=O)c1ccccc1NC(=O)CN(c1ccc(Cl)cc1)S(=O)(=O)c1ccc(OC)cc1`, the “activity change, positive = activation” value is inactive: -12.4%.

Consider `Cc1ccc2[nH]c(CSc3nnc(C)s3)cc(=O)c2c1`, for which the “activity change, positive = activation” value is inactive: -3.66%.

For `COc1ccc(CNC(=O)C2CCN(c3nnc(C)c4c(C)n(-c5ccc(C)cc5)nc34)CC2)cc1`, the “activity change, positive = activation” value was inactive: -25%.

In the case of `CC(C)(C)C(=O)OCOP(=O)(COCCn1cnc2c(N)ncnc21)OCOC(=O)C(C)(C)C`, the activity change, positive = activation result was “inactive”.

For `CCc1ccc(NC(=O)c2sc3nc(C)cc(C)c3c2NC(=O)c2ccccc2)cc1`, the “activity change, positive = activation” value was inactive: 9.54%.

In the case of `COc1cccc(CNC(=O)Nc2ccc3c(c2)N(C)C(=O)c2ccccc2S3)c1`, the “activity change, positive = activation” value was inactive: -49.6%.

As for `Cc1ccc(-c2nn3c(C)nnc3c3ccccc23)cc1S(=O)(=O)NC(C)(C)CO`, the “activity change, positive = activation” value is inactive: -5.83%.

In the case of `Cc1ccccc1NC(=O)C1CCN(S(=O)(=O)c2cccc3nonc23)CC1`, the “activity change, positive = activation” value was inactive: -22.2%.

Take `O=C(Nc1nnc2n1CCS2)c1cc(C(F)(F)F)cc(C(F)(F)F)c1`: the “activity change, positive = activation” value was inactive: -7.43%.

As for `CCOc1ccc(N(C)S(=O)(=O)c2cc(-c3cnc(C)o3)ccc2OC)cc1`, the “activity change, positive = activation” value was inactive: -33.5%.

In the case of `CN(C)S(=O)(=O)c1ccc2c(c1)N(CC(=O)N1CCC(C(N)=O)CC1)CCS2`, the “activity change, positive = activation” value was inactive: -4.91%.

(Values after PubChem BioAssay AID1508624 (National Center for Advancing Translational Sciences (NCATS), 2021).)
